Measured values from PubChem BioAssay (NCI).
Values joined by “and” are separate entries in the source; they are usually repeats but may differ in a detail not shown here. Equal entries are not always repeated.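 Method: 48-hour compound exposure of cells in 96-well plates, five concentrations, linear interpolation of endpoints. GI50 = concentration required for 50% inhibition of growth. TGI denotes the concentration required for complete inhibition of growth.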

Test system: NCI-H322M lung
Assay: growth of human tumour cells (NCI), 48 h

SMILES | TGI | GI50
O=C1OC(c2ccc([N+](=O)[O-])cc2)=N/C1=C\c1ccc(O)cc1 | > 100 µM | –
N#Cc1ccc(-n2cnc(NC(=O)[C@H]3CCN(C#N)C3)c2)cc1 | 23.9 µM | 2.21 µM
CCOC(=O)Cn1nc2ccc(Nc3nc4ccccc4nc3C(=O)OCC)cc2n1 | > 100 µM | –
Oc1cccc(C2SCc3nc4ccccc4n32)c1 (centres undefined) | > 100 µM | –
CC(C)C1OCC(CO)CO1 (centres undefined) | > 100 µM | –
COC(=O)/C(=C/N1CCN(C(=O)c2ccco2)C1=S)C(C)=O | 33.8 µM | 12.4 µM
C=CC1=C(C)C2=NC1=CC1=NC(=C(CC)/C1=C/O)C=C1C=C3C(=O)C(C(=O)OC)C(=C4NC(=C2)C(C)C4CCC(=O)OC/C=C(\C)CCCC(C)CCCC(C)CCCC(C)C)C3=N1 (centres undefined) (tested in a mixture with another compound) | > 100 µM | –
CCOC(=O)c1c(C)c2c(n1C)CSc1cc(S(=O)(=O)c3ccccc3)c(=O)[nH]c1-2 | > 100 µM | 21.9 µM
O=[N+]([O-])c1cc(Cl)ccc1S(=O)(=O)c1ccccc1 | > 100 µM | –
Cc1ccc(NC2=C(Cl)C(=O)c3nc(C)ccc3C2=O)cc1 | 12.7 µM | 3.42 µM
COc1cc(Cn2c3c(c4cc(O)ccc42)C(=O)c2ccccc2C3=O)cc(OC)c1 | > 100 µM | –
COc1cc2c(cc1OC)-c1cc3ccccc3c(=O)n1CCC2 | 52.6 µM | –
Nc1nc(Nc2ccc(Cl)cc2)sc1C(=O)c1cc2ccccc2oc1=O | > 100 µM | –
C[C@]12CC[C@H]3[C@@H](C[C@@H]4SC(Nc5cccc(F)c5)=N[C@@]45CC(=O)CC[C@]35C)[C@@H]1CCC2=O | 28.9 µM | 3.6 µM
O=C1C(Nc2ccccn2)=C(I)C(=O)c2ncccc21 | 2.75 µM | 1.44 µM
O=C(c1cccs1)c1c(C(F)(F)F)n([O-])c2cc(F)c(F)cc2[n+]1=O | 9.65 µM | 3.69 µM
CCOC(=O)c1cc(C(=O)c2cc(OC)cc(OC)c2)n2ncccc12 | > 100 µM | 8.32 µM
CCN(C)S(=O)(=O)Nc1cccc(Nc2ncnc3cc(NC(=O)CCl)ccc23)c1Cl | > 25 µM | 9.6 µM
COCCN1C2=CCCCC2=Nc2c(N)nc(N)nc21 | > 100 µM | –
C[C@H](CCc1nc(C#N)c(N)o1)[C@H]1CC[C@H]2[C@@H]3[C@@H](O)CC4C[C@@H](O)CC[C@]4(C)[C@H]3C[C@@H](O)[C@]12C (some centres undefined) | 88.6 µM | –
O=C=Nc1ccc(Cc2ccc(N=C=O)cc2)cc1 (tested in a mixture with another compound) | > 25 µg/mL | > 25 µg/mL
O=C(NCCNCCO)c1ccc2oc3cc4ccccc4c(=O)n3c2c1 | 31.4 µM | 13.2 µM
N#Cc1c(N2CCOCC2)ncn(-c2ccccc2)c1=O | > 100 µM | –
O=C(N/N=C/c1cc2ccccc2c2ccccc12)c1cc(O)c(O)c(O)c1 | 19.9 µM | 5.46 µM

SMILES | TGI | GI50
CC1=CCC2(C#N)CCC1C2=O (centres undefined) | > 100 µM | –
CC/C(=C(\c1ccc(O)cc1)c1ccc(OCCNC)cc1)c1ccccc1 | 7.38 µM and 4.94 µM and 7.56 µM | 2.7 µM and 2.07 µM and 2.59 µM
C=CCSc1nn(CC=C)cc2ncnc1-2 | > 100 µM | –
CN1N=C(c2ccncc2)OC1c1ccc(Cl)c(Cl)c1 (centres undefined) | > 100 µM | –
C=CCSc1n[nH]c(-c2cccs2)n1 | > 100 µM | > 100 µM
O=C(Nc1ccc(-n2cc(-c3ccncc3)c(-c3ccc(Cl)c(O)c3)n2)cc1)c1cc(Cl)cc(Cl)c1 | > 100 µM | > 100 µM
C[C@]12CC[C@@H]3c4ccc(O)cc4CC[C@H]3[C@@H]1CC[C@@H]2NS(=O)(=O)c1cccc(Br)c1 | 19.8 µM | 6.56 µM
C=CC(=O)Nc1cc2c(Nc3ccc(OCc4ccccn4)c(Cl)c3)ncnc2cc1OCCN1CCOCC1 | > 100 µM | 0.386 µM
CC(C)(C)OC(=O)C(C1NC(C(=O)O)C(C)(C)S1)N1C(=O)c2ccccc2C1=O (centres undefined) | > 100 µM | –
NC1=C(c2nc(-c3cc4ccccc4oc3=O)cs2)C(c2ccco2)c2c(c3ccccc3oc2=O)O1 (centres undefined) | > 150 µg/mL | > 150 µg/mL
c1ccc(C2CC(N3CCOCC3)=Nc3ccccc3N2)cc1 (centres undefined) | > 100 µM | –
CCCCc1ccc(Nc2nc(Cl)c3[nH]cnc3n2)cc1 | > 100 µM | –
NC(=O)c1c(OCc2c(F)cc(Br)cc2F)nsc1NC(=O)NCCCCN1CCCC1 | > 10 µM | 3.26 µM
Cc1cc(N2CCN(C)CC2)nc(NC2CCCC(Nc3ccnc4cc(Cl)ccc34)C2)n1 (centres undefined) | 6.64 µM | 2.11 µM
C=C1C(=O)C=C2C=C3C(=O)C(C)(C)C[C@]3(O)C12C (some centres undefined) | 35.7 µM | –
COC(=O)c1c2c(c(C)[n+]([O-])c1C)C(=O)C(NCc1ccc(F)c(Cl)c1)=CC2=O | 6.35 µM | 1.88 µM
Cc1ccc(S(=O)(=O)n2ccn3c(=O)cc(C)nc23)cc1 | > 10 µM | –
CCOc1ccc(N=Cc2cc(OC)c(OC)c(OC)c2)cc1 | > 100 µM | –
COc1cc2c[n+](C)c3c4ccccc4ccc3c2cc1OC | 47.2 µM | –
Nc1ccc(-c2ccc(-c3nc4ccccc4[nH]3)cc2)cc1 | 25.7 µM | –
O=[N+]([O-])C(=C1Nc2ccccc2N1)C(Cl)=C(Cl)Cl | > 100 µM | –
CC1=NN(C(=O)c2ccc(Cl)cc2)C(=O)/C1=C/c1cccc(O)c1 | > 100 µM | –
OCCOCCO[P+]1(OCCOCCO)n2c3ccc2C(c2ccccc2)=C2C=CC(=N2)C(c2ccccc2)=c2ccc(n21)=C(c1ccccc1)C1=NC(=C3c2ccccc2)C=C1 | 1.11 µM | –
C#C[C@]1(O)CC[C@H]2[C@@H]3CC=C4c5nc(Nc6ccc(OC)cc6OC)sc5CC[C@]4(C)[C@H]3CC[C@@]21C | 23.1 µM | 2.72 µM

SMILES | TGI | GI50
COC(=O)C1=NN2c3ccccc3CN([C@@H](C)c3ccccc3)C(=O)[C@@H]2C1 | > 100 µM | –
O=[N+]([O-])c1ccc(N(CCO)CCO)c2c1no[n+]2[O-] | 10.7 µM | 2.39 µM
NC(N)=NC(N)=NCCc1ccccc1 | > 100 µM | > 100 µM
Cc1cccc(NC(=O)CC2C(=O)Nc3ccccc3S2(=O)=O)c1C (centres undefined) | > 100 µM | –
O=C1c2cccc3c(N4CCN(c5ccc6c7c(cccc57)C(=O)N(CCN5CCNCC5)C6=O)CC4)ccc(c23)C(=O)N1CCN1CCNCC1 | 29.9 µM | 14.1 µM
O=C(Nc1cc(C(F)(F)F)ccc1Cl)C(=O)C(C(=O)c1ccc2ccccc2c1)C1OC(=O)c2ccccc21 (centres undefined) | 18.5 µM | –
O=C1Nc2ccccc2SC1C1SC(=S)N(Cc2ccccc2)C1=O (centres undefined) | 36 µM | 15.1 µM
Cc1cc2c3c(ccc4ncc(c43)CN2c2ccc(NS(C)(=O)=O)cc2)[nH]1 | 39.9 µM | –
O=C1OC(=O)C2C3CCC(O3)C12 (centres undefined) | > 100 µM | –
CC1CC(=O)C(C(O)CC2CC(=O)N(c3ccccc3)C(=O)C2)C(C)C1 (centres undefined) | > 100 µM | –
CCC12C=CCN3CC[C@]4(C(=C(C(=O)OC)[C@@H]1Nc1ccn(C5OC(COC(C)=O)C(OC(C)=O)C5OC(C)=O)c(=O)n1)Nc1ccccc14)C32 (some centres undefined) | 10.2 µM | –
CS(=O)(=O)c1ccc(C(F)(F)F)cc1NC(=O)Nc1cnc(Oc2ccc(-c3cc(Cl)cnc3N)cc2)nc1 | 17 µM | 2.69 µM
Nc1cc(C(F)F)c(-c2nc(N3[C@@H]4CC[C@H]3COC4)nc(N3[C@@H]4CC[C@H]3COC4)n2)cn1 | > 100 µM | 0.389 µM
CCC(=S)N(C)O | > 95.7 µM | –
COCCOC(C)C(/C=N/NC(N)=S)=N/NC(N)=S (centres undefined) | > 100 µM | –
c1ccc2cc3n[se]nc3cc2c1 | > 100 µM | –
O=C1/C(=C\c2ccccc2)c2ccccc2N1Cc1ccccc1 | 16.6 µM | –
C/C=C/C=C/[C@H]1Cc2cc(O)cc(O)c2O1 | > 100 µM | –
CNC(=O)OCc1nc(S(C)=O)n(C)c1COC(=O)NC (centres undefined) | > 100 µM | –
OC[C@H]1CC(c2nn[nH]n2)[C@H](O)[C@@H]1O (some centres undefined) | > 100 µM | –
CCOC(=O)C(=Cc1ccc(Br)cc1)C(=O)OCC | 6.58 µM | 2.37 µM
CN(C)CC1(C)CC/C(=C\c2ccc3c(c2)OCO3)C1=O (centres undefined) | > 100 µM | –
C=C(C)C1CC[C@]2(C(=O)O)CCC3(C)[C@H](CCC4[C@@]5(C)CC[C@H](OC6OC(CO)C(O)C6OC6OC(C)C(O)C(O)C6O)[C@@](C)(CO)C5CC[C@]43C)C12 (some centres undefined) | > 100 µM | –
COC(=O)C(Cc1ccccc1)NS(=O)(=O)c1ccc(-c2c3nc(c(-c4ccc(S(=O)(=O)NC(Cc5ccccc5)C(=O)OC)cc4)c4ccc([nH]4)c(-c4ccc(S(=O)(=O)NC(Cc5ccccc5)C(=O)OC)cc4)c4nc(c(-c5ccc(S(=O)(=O)NC(Cc6ccccc6)C(=O)OC)cc5)c5ccc2[nH]5)C=C4)C=C3)cc1 (centres undefined) | > 100 µM | –

SMILES | TGI | GI50
O=C(c1nsc(Cl)c1Cl)N1CCCCC1 | > 100 µM | –
CC1=COC2=C(C)C(=O)C(=O)c3c(C)ccc1c32 | 9.84 µM | –
C=CCCCC1(C)CCCCNC1=O (centres undefined) | > 10 µM | –
Cc1ccc2c(c1)NC(=O)C(N=[N+]=[N-])(c1ccccc1)C2=O (centres undefined) | > 100 µM | –
Cc1ccc(C(=O)/C=C/c2ccccc2Cl)cc1 | 83.3 µM | –
C[n+]1c2ccccc2c(NC(CCC(N)=O)C(=O)O)c2ccccc21 (centres undefined) | > 100 µM | –
Cc1cccc(C)c1NC(=S)/N=C/C1=C(O)c2ccccc2C1=O | > 100 µM | –
O=C(Oc1ccc([N+](=O)[O-])cc1)N1CCC(C(O)(c2ccc3c(c2)OCO3)c2ccc3c(c2)OCO3)CC1 | > 100 µM | > 100 µM
CC(C)OCN1COCN=C1NC#N | > 100 µM | –
COc1ccc2cc(C(=O)/C=C/c3ccc(OC)c(OC)c3)ccc2c1 | 78 µM | 37.3 µM
O=[N+]([O-])c1ccc2nc(N/N=C/c3ccc(O)cc3)sc2c1 | > 100 µM | 7.27 µM
N/C(=N\C(=S)N1CCCCC1)N1CCCCC1 | > 100 µM | –
O=c1cccc(C#CCCCCOC2CCCO2)o1 (centres undefined) | 33.8 µM | 12.5 µM
C=C1CC2(OC1=O)c1ccccc1CCc1ccccc12 | 30.1 µM | –
Clc1ccc2c(NCCCN3CCN(c4nc(-n5ccnc5)nc5ccccc45)CC3)ccnc2c1 | > 100 µM | > 100 µM
Fc1cccc(F)c1C1SCc2nc3ccccc3n21 (centres undefined) | > 100 µM | –
CC(=O)O[C@H]1CCC2[C@@H]3CCC4C(=O)c5oncc5C[C@]4(C)C3CC[C@@]21C (some centres undefined) | > 100 µM | –
Cc1cc(NC(=O)CCc2ccc(N3C(N)=NC(N)=NC3(C)C)cc2)ccc1S(=O)(=O)F | > 100 µM | 30 µM
COc1cc(C2C(C(=O)O)=C(C)Oc3cc4c(cc32)OCO4)cc(OC)c1OC (centres undefined) | > 100 µM | –
CC1CC2C3CC(F)C4=CC(=O)C=CC4(C)C3(F)C(O)CC2(C)C1(O)C(=O)CO (centres undefined) | > 100 µM | –
CC(C)(C)SC1=CCC[C@@H](P(=O)(c2ccccc2)c2ccccc2)[C@@H]2CCC[C@@H]12 | 32 µM | –
CCCCNc1nc(SC)nc2nc[nH]c12 | > 100 µM | –
